Results taken from the supplement of paper PMC12067093, “Discovery and optimisation of a covalent ligand for TRIM25 and its application to targeted protein ubiquitination” (Chemical Science, 2025).
About 21,000 targets were measured; listed, in parts, are those with the largest changes and a random draw of the rest.

Compound: Cc1cc(ccc1-c1ccccc1)C(=O)N1CCCN(CC1)C(=O)CCl [compound 10]
Assay: probe-labelled cysteine peptide fold change vs DMSO (competition) (log2 fold change); higher = less target engagement (more negative = stronger competition)
Settings: THP-1, incubation time: 4 h
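Note: competitive profiling in live THP-1 cells: cysteine peptides tagged with an iodoacetamide desthiobiotin (IA-DTB) probe, intensity after compound treatment relative to DMSO-treated cells.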

UniProt Q86SX6, sequence (Q86SX6 whole entry): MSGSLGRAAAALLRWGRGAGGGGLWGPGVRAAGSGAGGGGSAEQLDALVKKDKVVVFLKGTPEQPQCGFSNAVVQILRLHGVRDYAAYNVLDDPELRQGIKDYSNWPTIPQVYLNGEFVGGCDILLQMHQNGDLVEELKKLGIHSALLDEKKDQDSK
UniProt P00505, sequence (P00505 whole entry, looked up): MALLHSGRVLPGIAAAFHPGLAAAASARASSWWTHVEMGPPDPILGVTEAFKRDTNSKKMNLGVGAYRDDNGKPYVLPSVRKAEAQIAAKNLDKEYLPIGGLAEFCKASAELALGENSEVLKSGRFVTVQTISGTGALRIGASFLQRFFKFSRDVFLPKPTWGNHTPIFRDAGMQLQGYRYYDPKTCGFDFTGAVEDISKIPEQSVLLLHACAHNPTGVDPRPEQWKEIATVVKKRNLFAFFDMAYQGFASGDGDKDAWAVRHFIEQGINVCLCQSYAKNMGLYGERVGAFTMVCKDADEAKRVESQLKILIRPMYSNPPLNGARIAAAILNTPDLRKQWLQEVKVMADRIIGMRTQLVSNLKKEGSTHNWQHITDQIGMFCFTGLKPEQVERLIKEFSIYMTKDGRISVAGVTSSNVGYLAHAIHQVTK
UniProt Q13480, sequence (Q13480 whole entry): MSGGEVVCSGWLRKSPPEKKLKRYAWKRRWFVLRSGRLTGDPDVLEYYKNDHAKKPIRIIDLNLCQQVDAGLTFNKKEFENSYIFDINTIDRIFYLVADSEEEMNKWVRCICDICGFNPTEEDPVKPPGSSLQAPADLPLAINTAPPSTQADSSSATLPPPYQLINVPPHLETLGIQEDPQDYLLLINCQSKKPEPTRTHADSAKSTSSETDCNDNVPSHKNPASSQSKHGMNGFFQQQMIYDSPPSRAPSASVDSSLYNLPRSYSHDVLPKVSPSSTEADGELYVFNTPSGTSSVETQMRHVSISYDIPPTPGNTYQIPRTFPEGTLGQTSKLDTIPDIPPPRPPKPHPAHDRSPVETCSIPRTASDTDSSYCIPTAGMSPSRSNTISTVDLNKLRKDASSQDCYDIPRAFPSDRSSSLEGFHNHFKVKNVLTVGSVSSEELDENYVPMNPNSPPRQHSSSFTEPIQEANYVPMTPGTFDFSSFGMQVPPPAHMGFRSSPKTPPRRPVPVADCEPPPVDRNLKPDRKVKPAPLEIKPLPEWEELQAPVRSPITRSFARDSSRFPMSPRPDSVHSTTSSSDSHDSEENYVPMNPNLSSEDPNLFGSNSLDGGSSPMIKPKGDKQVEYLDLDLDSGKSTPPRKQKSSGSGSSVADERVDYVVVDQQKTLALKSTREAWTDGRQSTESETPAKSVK
UniProt Q9NWU2, sequence (Q9NWU2 whole entry, looked up): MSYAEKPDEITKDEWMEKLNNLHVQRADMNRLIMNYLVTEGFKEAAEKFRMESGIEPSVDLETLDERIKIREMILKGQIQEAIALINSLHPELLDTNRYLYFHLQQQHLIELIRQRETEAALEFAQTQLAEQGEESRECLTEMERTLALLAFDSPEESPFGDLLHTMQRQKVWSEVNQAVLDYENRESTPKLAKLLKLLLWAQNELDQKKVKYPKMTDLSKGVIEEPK
UniProt Q9BX10, sequence (Q9BX10 whole entry, looked up): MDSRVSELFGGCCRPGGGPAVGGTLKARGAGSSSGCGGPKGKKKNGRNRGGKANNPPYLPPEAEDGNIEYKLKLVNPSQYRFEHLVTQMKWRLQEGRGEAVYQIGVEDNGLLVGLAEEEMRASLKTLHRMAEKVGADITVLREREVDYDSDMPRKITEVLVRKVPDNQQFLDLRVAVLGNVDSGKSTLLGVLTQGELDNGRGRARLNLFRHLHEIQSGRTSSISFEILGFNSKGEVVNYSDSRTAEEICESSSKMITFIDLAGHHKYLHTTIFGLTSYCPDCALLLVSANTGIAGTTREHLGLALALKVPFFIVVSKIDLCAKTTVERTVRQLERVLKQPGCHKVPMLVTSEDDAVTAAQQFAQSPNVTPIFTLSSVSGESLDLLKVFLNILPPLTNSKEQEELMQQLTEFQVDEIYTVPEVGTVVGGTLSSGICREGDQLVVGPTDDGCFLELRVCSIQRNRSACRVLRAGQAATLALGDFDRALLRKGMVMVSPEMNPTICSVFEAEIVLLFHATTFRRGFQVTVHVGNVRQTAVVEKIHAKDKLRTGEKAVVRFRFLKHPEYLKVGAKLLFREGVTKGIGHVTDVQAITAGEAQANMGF
UniProt Q13045, sequence (Q13045 whole entry, looked up): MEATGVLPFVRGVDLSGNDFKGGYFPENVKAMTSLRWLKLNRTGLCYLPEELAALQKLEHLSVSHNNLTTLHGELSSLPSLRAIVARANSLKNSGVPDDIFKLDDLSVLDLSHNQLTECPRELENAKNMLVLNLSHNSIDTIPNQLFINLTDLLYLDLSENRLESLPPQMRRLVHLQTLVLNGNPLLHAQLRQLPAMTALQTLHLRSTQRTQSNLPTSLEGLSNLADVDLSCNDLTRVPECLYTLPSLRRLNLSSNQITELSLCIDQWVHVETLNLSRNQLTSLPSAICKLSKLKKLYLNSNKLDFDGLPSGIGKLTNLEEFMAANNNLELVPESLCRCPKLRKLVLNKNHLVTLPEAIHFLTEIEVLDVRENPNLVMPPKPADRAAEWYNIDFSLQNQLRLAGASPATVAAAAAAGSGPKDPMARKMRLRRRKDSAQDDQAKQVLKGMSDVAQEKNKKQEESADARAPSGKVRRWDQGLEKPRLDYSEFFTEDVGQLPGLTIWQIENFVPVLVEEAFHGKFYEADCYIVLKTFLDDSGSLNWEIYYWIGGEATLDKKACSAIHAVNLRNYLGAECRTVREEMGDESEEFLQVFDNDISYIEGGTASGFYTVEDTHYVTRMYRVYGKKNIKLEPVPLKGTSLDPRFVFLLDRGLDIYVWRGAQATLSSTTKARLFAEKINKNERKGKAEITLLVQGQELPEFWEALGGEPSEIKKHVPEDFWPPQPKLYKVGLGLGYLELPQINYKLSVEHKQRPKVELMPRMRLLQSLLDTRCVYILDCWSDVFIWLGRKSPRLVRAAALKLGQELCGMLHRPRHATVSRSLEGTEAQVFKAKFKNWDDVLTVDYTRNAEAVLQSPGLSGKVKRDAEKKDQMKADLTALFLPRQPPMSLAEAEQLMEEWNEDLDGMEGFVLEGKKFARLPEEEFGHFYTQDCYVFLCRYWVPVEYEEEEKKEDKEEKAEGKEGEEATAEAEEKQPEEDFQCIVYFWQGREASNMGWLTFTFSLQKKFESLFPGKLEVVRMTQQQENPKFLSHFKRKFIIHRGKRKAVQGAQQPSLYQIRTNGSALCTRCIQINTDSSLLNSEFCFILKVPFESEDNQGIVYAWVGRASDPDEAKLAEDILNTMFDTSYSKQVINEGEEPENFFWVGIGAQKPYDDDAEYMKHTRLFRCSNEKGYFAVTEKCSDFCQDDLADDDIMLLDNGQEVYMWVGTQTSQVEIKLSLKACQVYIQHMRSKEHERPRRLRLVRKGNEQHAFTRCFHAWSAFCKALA
UniProt P52789, sequence (P52789 whole entry, looked up): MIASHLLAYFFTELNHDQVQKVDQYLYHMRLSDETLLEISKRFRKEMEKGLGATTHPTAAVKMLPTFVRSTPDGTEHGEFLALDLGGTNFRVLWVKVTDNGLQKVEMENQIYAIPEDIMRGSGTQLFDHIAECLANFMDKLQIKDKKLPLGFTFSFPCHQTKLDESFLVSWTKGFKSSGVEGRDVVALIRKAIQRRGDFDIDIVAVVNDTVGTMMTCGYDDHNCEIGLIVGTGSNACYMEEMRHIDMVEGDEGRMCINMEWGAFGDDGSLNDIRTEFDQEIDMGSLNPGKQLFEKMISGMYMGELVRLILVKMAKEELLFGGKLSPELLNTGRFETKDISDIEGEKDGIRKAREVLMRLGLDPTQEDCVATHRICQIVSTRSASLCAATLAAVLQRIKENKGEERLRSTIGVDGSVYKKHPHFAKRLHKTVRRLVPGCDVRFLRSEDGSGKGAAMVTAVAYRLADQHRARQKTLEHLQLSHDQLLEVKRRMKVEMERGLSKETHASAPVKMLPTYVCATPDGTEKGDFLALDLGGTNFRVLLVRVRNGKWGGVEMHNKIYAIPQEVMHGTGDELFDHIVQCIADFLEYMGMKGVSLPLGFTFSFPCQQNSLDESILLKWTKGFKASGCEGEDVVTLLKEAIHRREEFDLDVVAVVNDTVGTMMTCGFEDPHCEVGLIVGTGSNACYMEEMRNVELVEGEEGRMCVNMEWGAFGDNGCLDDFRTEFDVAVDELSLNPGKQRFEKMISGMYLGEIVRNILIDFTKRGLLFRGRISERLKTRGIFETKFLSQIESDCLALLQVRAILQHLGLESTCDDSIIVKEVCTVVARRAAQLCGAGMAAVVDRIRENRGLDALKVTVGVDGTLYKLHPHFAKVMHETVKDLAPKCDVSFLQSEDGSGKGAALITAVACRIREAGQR
UniProt Q96EK6, sequence (Q96EK6 whole entry, looked up): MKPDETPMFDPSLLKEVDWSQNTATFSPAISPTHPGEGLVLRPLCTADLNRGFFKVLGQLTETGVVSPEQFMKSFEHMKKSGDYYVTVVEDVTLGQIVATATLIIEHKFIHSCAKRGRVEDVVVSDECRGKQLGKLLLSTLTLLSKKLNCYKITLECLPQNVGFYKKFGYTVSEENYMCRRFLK
UniProt Q8N335, sequence (Q8N335 whole entry, looked up): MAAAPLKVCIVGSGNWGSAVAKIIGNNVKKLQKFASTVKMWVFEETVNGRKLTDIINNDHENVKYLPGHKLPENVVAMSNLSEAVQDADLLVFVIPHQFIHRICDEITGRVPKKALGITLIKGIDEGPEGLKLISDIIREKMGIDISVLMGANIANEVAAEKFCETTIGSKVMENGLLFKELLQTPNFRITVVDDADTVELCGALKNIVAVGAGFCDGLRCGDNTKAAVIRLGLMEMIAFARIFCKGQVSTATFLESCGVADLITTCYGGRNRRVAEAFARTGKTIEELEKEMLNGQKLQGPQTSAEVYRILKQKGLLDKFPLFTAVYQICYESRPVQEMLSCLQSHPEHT

| Target | probe-labelled cysteine peptide fold change (10 µM) | probe-labelled cysteine peptide fold change (50 µM) |
| --- | --- | --- |
| GOT2_P00505_382_EGSTHNWQHITDQIGMFCFTGLKPEQVER (UniProt P00505) | 0.125 | 0.0313 |
| GID8_Q9NWU2_139_QRETEAALEFAQTQLAEQGEESRECLTEMER (UniProt Q9NWU2) | 0.145 | 0.0196 |
| HCFC2_Q9Y5Z7_215_MYVFGGMCGAR (UniProt Q9Y5Z7) | -0.131 | -0.281 |
| HK2_P52789_823_EVCTVVAR (UniProt P52789) | 0.0182 | 0.0259 |
| HK3_P52790_409_AAQLCAAALAAVLSCLQHSR (UniProt P52790) | -0.059 | 0.0868 |
| FSCN1_Q16658_80_DGNVTCER (UniProt Q16658) | -0.148 | -0.0453 |
| FN1_P02751_179_GEWTCKPIAEK (UniProt P02751) | -0.495 | -0.763 |
| GNPNAT1_Q96EK6_157_ITLECLPQNVGFYKK (UniProt Q96EK6) | -0.202 | -0.016 |
| HBS1L_Q9Y450_529_LLAMPPNETCTVK (UniProt Q9Y450) | -0.236 | 0.00185 |
| GPD1L_Q8N335_202_ITVVDDADTVELCGALK (UniProt Q8N335) | -0.101 | 0.025 |
| GTPBP2_Q9BX10_249_TAEEICESSSK (UniProt Q9BX10) | -0.0237 | 0.126 |
| GAB1_Q13480_213_STSSETDCNDNVPSHK (UniProt Q13480) | 0.0157 | -0.0415 |
| FLII_Q13045_560_KACSAIHAVNLR (UniProt Q13045) | -0.147 | -0.868 |
| GLRX5_Q86SX6_67_GTPEQPQCGFSNAVVQILR (UniProt Q86SX6) | -1.03 | -2.24 |
